Results: patent US4011327A (priority 1975, dated 1977)

Key:
[1] = test system: Sporotrichum schenckii; experiment: Antifungal activity in vitro, mycelial growth on Sabouraud dextrose agar; parameters: key: T: trace of growth; details: week 1, No. 1109, 25° C, duplicates a, b
Procedure: (§1) The minimum in vitro inhibitory concentration of 7β-methylthiodeoxynupharidin-6α-ol against these microorganisms in mcg/ml for a two week period as well as the disease and symptomatology usually associated with a mammalian infection by the microorganism is shown in Table 1.
(§2) Preparation of a solution of 7 -MTDOL suitable for running the antifungal tests was carried out in the following manner.
(§3) A 50 mg sample of 7-MTDOL was dissolved in a mixture of 30 mg of acetic acid and 1 ml of dimethylsulfoxide. The resulting solution was then employed to inhibit the growth of the microorganisms in vitro. The solvent blank which was used for comparison purposes was made up in a similar manner. Thus 60 mg of acetic and 2 ml of dimethylsulfoxide was diluted to 100 ml with water. These solutions of 7-MTDOL and reference solvent were sterilized by filtering through a Seitz filter.
(§4) The mycelial growth of Blastomyces dermatitidis and Histoplasma capsulatum was inhibited up to the end of 3 weeks by concentrations of 80 and 40 μg /ml respectively of 7-MTDOL in Sabouraud dextrose agar. The growth of Trichophyton rubrum and Sporotrichum schenckii was inhibited up to the end of 3 weeks by concentrations of 100 μg /ml of 7-MTDOL in Sabouraud dextrose agar. […]

[2] = test system: Histoplasma capsulatum; parameters: key: T: trace of growth; details: 10 mcg/ml, week 1, No. 1106, 25° C, duplicates a, b
Procedure: as §1, §2, §3, §4

Measured: weekly increments of the diameter of colony

CSC1(C)CCC2C(C)CCC(c3ccoc3)N2C1O (single isomer, unassigned) [Example 7-MTDOL, 7β-methylthiodeoxynupharidin-6α-ol]
T: [1]; 20 mcg/ml | [1]; 40 mcg/ml | [2]
